Data published in article PMC6919601, “Identification of Plasmodium dipeptidyl aminopeptidase allosteric inhibitors by high throughput screening” (PLoS ONE, 2019).
The whole screen tested about 110,000 compounds, of which about 230 (0.21%) showed an effect of 50% or more. The list shows a part of the results.

What follows are compounds tested against DPAP1 (Plasmodium falciparum, UniProt Q8IIJ9) (assay: primary screen, percent inhibition; read by cleavage of a fluorogenic dipeptide substrate; higher = more effect of the substance).
Chain of DPAP1 (Q8IIJ9 whole entry, looked up): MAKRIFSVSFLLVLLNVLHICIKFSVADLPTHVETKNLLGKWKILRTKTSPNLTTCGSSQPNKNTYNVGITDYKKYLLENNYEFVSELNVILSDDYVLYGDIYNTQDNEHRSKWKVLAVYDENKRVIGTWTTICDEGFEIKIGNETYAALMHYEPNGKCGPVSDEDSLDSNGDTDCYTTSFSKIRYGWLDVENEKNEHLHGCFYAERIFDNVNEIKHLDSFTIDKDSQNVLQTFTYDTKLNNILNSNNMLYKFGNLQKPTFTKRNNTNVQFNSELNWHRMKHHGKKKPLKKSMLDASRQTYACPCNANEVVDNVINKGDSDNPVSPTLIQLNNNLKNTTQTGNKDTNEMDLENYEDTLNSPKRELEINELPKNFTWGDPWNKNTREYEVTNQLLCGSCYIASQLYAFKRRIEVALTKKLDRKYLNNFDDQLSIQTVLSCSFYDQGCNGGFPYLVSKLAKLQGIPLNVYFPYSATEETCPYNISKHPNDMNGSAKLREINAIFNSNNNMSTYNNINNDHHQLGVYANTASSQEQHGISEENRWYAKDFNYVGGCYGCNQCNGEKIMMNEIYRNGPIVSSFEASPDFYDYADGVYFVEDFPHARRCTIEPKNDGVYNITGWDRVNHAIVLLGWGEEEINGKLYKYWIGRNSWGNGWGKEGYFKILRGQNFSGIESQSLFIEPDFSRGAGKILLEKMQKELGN
Parameters: species or system P. falciparum D10 trophozoite lysates; single well
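Further: 30 min substrate incubation versus DMSO and 10 µM JCP410 controls.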

SMILES | % Inhibition @ 10 uM
Cc1ccc(OCc2nc(-c3ccc(-n4cccc4)cc3)no2)cc1C | 2.16%
COc1ccc(OC)c(/C=C(\C#N)c2nc(-c3ccccc3)cs2)c1 | -3.26%
COc1ccc(C(c2cc(Cl)c3cccnc3c2O)N2CCN(C)CC2)cc1 (stereo not shown) | 33.6%
COc1cc(S(=O)(=O)Nc2ccncc2)c(OC)cc1Cl | -3.01%
O=C(NCCN1CCC(Cc2ccccc2)CC1)C1CC(=O)N(CCc2ccccc2)C1 (stereo not shown) | -1.79%
O=S(=O)(Nc1cccc(Cl)c1Cl)c1cc(Cl)ccc1Cl | 2.46%
COc1ccc(OCc2nnc3n2N=C(c2ccc(OC)cc2)CS3)cc1 | 3.25%
CC12CNCC(C)(CN(Cc3ccc(Br)cc3)C1)C2 | -7.54%
CCN(CC)C(=O)/C(=C\c1ccc(F)cc1)NC(=O)c1ccccc1 | -6.03%
Cc1ccc(-n2nc3c(=O)n(CC(=O)N4CCN(c5ccccn5)CC4)nc(C)c3c2C)cc1 | 6.42%
Cc1ccc(C2C(C(=O)c3ccc(Br)cc3)=C(O)C(=O)N2CCOCCO)cc1 (stereo not shown) | 3.24%
CCOc1ccc(-c2ncnn2-c2ccc(Br)cc2F)cc1 | -5.68%
O=C(NC1CCCCCCC1)c1cccnc1 | -0.687%
Cc1ccc(N2C(=O)CC(NC3CCCC3)C2=O)cc1 (stereo not shown) | 0.673%
CCCCN(CC)C(=O)c1noc2c1COc1ccccc1-2 | -1.72%
O=C(Nc1ccc(-c2cn3ccsc3n2)cc1)c1cccc(Br)c1 | 1.37%
Cc1ccc2nc(NCCN3CCOCC3)c3nnnn3c2c1 | 3%
COc1ccccc1C1=NOC(Cn2c(=O)c3c(ncn3C)n(C)c2=O)C1 (stereo not shown) | 0.221%
CC1CCCC(NC(=O)C2c3ccccc3C(=O)N2C(C)c2ccccc2)C1C (stereo not shown) | 0.387%
COc1cc2c(cc1OC)C(c1ccccc1)NC(=O)C2 (stereo not shown) | 3.16%
SC1=Nc2ccccc2SC(c2ccccc2)C1 (stereo not shown) | -3.04%
O=C(C1=C(C(F)(F)F)Nc2ncnn2C1c1ccc(Cl)cc1)c1cccs1 (stereo not shown) | -0.403%
C=CCN1C(=O)c2n[nH]c(-c3c(C)cc(C)cc3O)c2C1c1ccccc1F (stereo not shown) | 4.83%
CCCc1nc(-c2ccccc2O)n(-c2ccccc2)n1 | -0.865%
CCCNC(=O)c1cnn(-c2cccc(Cl)c2)c1C1CCN(C(=O)OC(C)(C)C)CC1 | 8.83%

SMILES | % Inhibition @ 10 uM
O=C(Cc1ccc(F)cc1)Nc1c(C(=O)N2CCN(c3ncccn3)CC2)oc2ccccc12 | -9.02%
FC(F)(F)c1ccccc1CN1CCN(c2cccc(Cl)c2)CC1 | -0.969%
Cc1cc(C)c(C(=O)c2ccc(C(=O)Nc3ccccc3)cc2)c(C)c1 | -0.771%
COC(=O)C1=CN(C(C)c2ccccc2)C=C(C(=O)OC)C1c1ccc(Cl)cc1Cl (stereo not shown) | -3.4%
CCOc1ccc2nc(N3CCC(C(=O)NCCc4ccc(S(N)(=O)=O)cc4)CC3)sc2c1 | 0.137%
CC(C)(C)c1ccc(C(=O)Nc2ccccc2F)cc1 | -3.26%
CCc1ccccc1NC(=O)c1ccc2c(c1)OCO2 | 0.565%
O=C(O)c1cc(-c2ccccn2)nc2ccc(Br)cc12 | -4.02%
N#Cc1ccccc1NC(=O)COc1ccccc1 | -2.18%
O=C1NC(c2cccc(Br)c2)C(C(=O)c2cccs2)C(O)(C(F)(F)F)N1 (stereo not shown) | 8.92%
COc1cc(SC)ccc1C(=O)N1CCCC(C)C1 (stereo not shown) | 4.3%
C=CCNC(=O)COc1cc(C)c(Cl)c(C)c1 | -2.27%
CC1=CC(C)(C)N(C(=O)Nc2ccc(F)cc2)c2ccccc21 | -0.0938%
Cc1nn(Cc2ccc(C(=O)Nc3ccc(Cl)cc3)o2)c(C)c1Cl | 1.02%
COCCn1c(C)cc(C(=O)C(=O)Nc2nnc(Cc3ccccc3)s2)c1C | 0.655%
CCCNS(=O)(=O)c1cc(-c2cc(C)no2)ccc1OC | -8.89%
CCC1=NN2C(=N)/C(=C/c3ccccc3OS(=O)(=O)c3ccc(C)cc3)C(=O)N=C2S1 | 15.9%
COc1cccc(OCCCN2CCN(S(=O)(=O)c3ccc(C)cc3)CC2)c1 | -2.9%
Cc1oc2c(c1C(=O)NC1CCCCC1)C1=NCCN1C=N2 | -6.13%
O=[N+]([O-])c1ccccc1S(=O)(=O)NC12CC3CC(CC(C3)C1)C2 | -0.0217%
CCC(=O)Nc1ccc(S(=O)(=O)Nc2ccc(F)cc2)cc1 | 1.37%
CCOP(=O)(Cc1cc(C(C)(C)C)c(O)c(C(C)(C)C)c1)OCC | -2.72%
COc1ccc(-c2cc(C(F)(F)F)n3ncc(C(=O)NCCN4CCOCC4)c3n2)cc1OC | -2.92%
CCOC(=O)c1c(C)n(C)c2c1cc(OC)c1ccccc12 | 6.81%
COc1ccc(NC(=O)CN(c2ccccc2C)S(C)(=O)=O)cc1 | -3.39%

SMILES | % Inhibition @ 10 uM
Cc1nc2ccccc2c2oc(C(=O)NCCC(C)C)cc12 | -3.45%
CC(C)CS(=O)(=O)C1=NSC2=NC(=O)/C(=C\c3ccc(F)cc3)C(=N)N21 | 1.85%
COC(=O)C1=CN(Cc2ccc(Cl)cc2)C=C(C(=O)OC)C1c1cc(OC)c(O)c(OC)c1 | 1.86%
N#CC1=C(N)Oc2cc(O)ccc2C1c1cccc(C(F)(F)F)c1 (stereo not shown) | -2%
CSc1ccc(CN(C)CC(O)c2ccccc2)cc1 (stereo not shown) | -1.75%
CNc1nc(N)c(C(=O)C23CC4CC(CC(C4)C2)C3)s1 | -2.77%
CCc1nc2nonc2c2nc3ccccc3n12 | -1.47%
CN(C)c1ccc(NC(=O)c2ccco2)cc1 | -1.32%
Cn1nc(C(=O)Nc2ccccc2Cl)cc1C(=O)Nc1ccccc1Cl | -3.04%
COc1cc(OC)cc(C2C(C#N)=C(N)Oc3[nH]nc(-c4cccs4)c32)c1 (stereo not shown) | -4.6%
CCOc1ccc(OCC)c(C2C(C#N)=C(N)Oc3nc(O)nc(O)c32)c1 (stereo not shown) | 8.95%
C/N=c1\c(NC(=O)c2sc3ccccc3c2Cl)c(O)oc2ccccc12 | 3.5%
COc1ccc(C(=O)N2N=C3CCCCCC3C2(O)C(F)(F)F)cc1 (stereo not shown) | -0.622%
Cc1cc(C)c(C#N)c(SCC(=O)c2cccs2)n1 | -3.77%
COc1cc2c(cc1OC)CN(C(=O)C1Cc3ccccc3CN1S(=O)(=O)c1cccs1)CC2 (stereo not shown) | -1.11%
CCOc1ccc(C(=O)C2=C(O)C(=O)N(Cc3cccnc3)C2c2ccc(F)cc2)c(C)c1 (stereo not shown) | -1.93%
CC1=CC2=NC(=O)/C(=C\c3cn(C)c4ccccc34)C(=N)N2O1 | 5.21%
Cc1ccc(CN2CC34C=CC(O3)C(C(=O)O)C4C2=O)cc1 (stereo not shown) | 2.9%
CC1Cc2ccccc2N1C(=O)c1c(Cl)cnn1C (stereo not shown) | 2.67%
N#Cc1cnn2c(C(F)(F)F)cc(-c3ccccc3)nc12 | -5.92%
C=CCOc1ccc(C(=O)C2=C(O)C(=O)N(Cc3cccnc3)C2c2ccccc2F)cc1C (stereo not shown) | 4.74%
CN(C)CCN(Cc1ccccc1)C(=O)c1cc2ccc3cccnc3c2[nH]1 | -5.57%
COC(=O)C1=C(N)Oc2c(oc(CO)cc2=O)C1c1cccs1 (stereo not shown) | 0.0719%
CC(NC(=O)CCN1N=C(c2ccccc2)CCC1=O)c1ccc2c(c1)OCCO2 (stereo not shown) | -4.53%
CCn1cc(CN2N=C(C)CC2c2ccccc2)c(C)n1 (stereo not shown) | -2.05%

SMILES | % Inhibition @ 10 uM
Cc1ccc(NC(=O)c2sc3nc(-c4ccncc4)ccc3c2N)c(Br)c1 | -9.45%
C=CCNC(=O)c1cc(-c2ccccc2O)on1 | -1.84%
CN1CCN(C(=O)c2ccc(CS(=O)(=O)c3c(Cl)cccc3Cl)o2)CC1 | -6.89%
COc1cc(CNC2C3CC4CC(C3)CC2C4)ccc1OCc1cccs1 (stereo not shown) | 4.85%
CCC1CCCCN1C/C=C/c1ccccc1[N+](=O)[O-] (stereo not shown) | -3.57%
COc1ccccc1NC(=O)C1=C(C)Nc2ncnn2C1c1ccccc1OC (stereo not shown) | -2.86%
c1ccc(OCCn2c(CN3CCCCC3)nc3ccccc32)cc1 | -1.31%
Nc1c(C(=O)Nc2ccccc2)cc(O)c2c1C(=O)c1ccccc1C2=O | -1.07%
N=C1/C(=C/c2ccc(SCc3ccco3)o2)C(=O)N=C2SC=CN12 | 17.5%
CCC(C(=O)NCc1ccccc1Br)n1sc2ccccc2c1=O (stereo not shown) | 0.39%
CN(C)CCOC1c2ccccc2C=Cc2ccccc21 | -3.16%
CC/N=c1\c(NS(=O)(=O)c2cccs2)c(O)oc2ccccc12 | -2.78%
CC(C)Cn1cc(NC(=O)NCCc2ccsc2)c2ccccc2c1=O | -1.79%
COc1cccc(C2/C(=C(/O)c3ccccc3)C(C)=Nc3nc4ccccc4n32)c1 (stereo not shown) | -0.703%
Cc1cccc(NC(=O)c2cc(-c3ccc(C)o3)nc3ccccc23)n1 | 5.24%
CCN1CCN(Cc2cc(OC)cc(OC)c2)CC1 | 7.2%
O=C(O)c1ccc(CNC(=O)c2cccnc2C(=O)O)cc1 | -1.52%
COc1ccc(S(=O)(=O)NCc2ccccn2)c(Cl)c1Cl | 1.27%
COc1ccc(C2CC(c3c(O)cc(C)oc3=O)=NCCS2)c(OC)c1 (stereo not shown) | -0.128%
CC1(C)CC(OC(=O)c2ccccc2)CC(C)(C)N1OC(=O)c1ccccc1 | 2.18%
CC(C)C(=O)NCCc1nc2ccccc2n1C(C)c1ccccc1 (stereo not shown) | -1.74%
COc1ccc(C2C3=C(O)CCCC3=NC(C)=C2C(=O)Nc2nc3ccccc3s2)c(OC)c1 (stereo not shown) | -2.87%
COc1cc(NCc2cc[n+](C)cc2)cc(OC)c1OC | -4.4%
O=C(CCn1c(=O)c2cccn2c2cccnc21)Nc1ccc(Br)cn1 | 4.39%
Cc1ccccc1-c1nc(CN2CCC(C(=O)NCCN3CCCC3)CC2)c(C)o1 | 2.37%
